Our source for the binding signal values is article PMC7819943, “Rice protein-binding microarrays: a tool to detect cis-acting elements near promoter regions in rice”.

This is one part of the list.

For this experiment, the target named is T1, OsWOX13 (Oryza sativa, UniProt Q5QMM3 1-267).
T1 sequence: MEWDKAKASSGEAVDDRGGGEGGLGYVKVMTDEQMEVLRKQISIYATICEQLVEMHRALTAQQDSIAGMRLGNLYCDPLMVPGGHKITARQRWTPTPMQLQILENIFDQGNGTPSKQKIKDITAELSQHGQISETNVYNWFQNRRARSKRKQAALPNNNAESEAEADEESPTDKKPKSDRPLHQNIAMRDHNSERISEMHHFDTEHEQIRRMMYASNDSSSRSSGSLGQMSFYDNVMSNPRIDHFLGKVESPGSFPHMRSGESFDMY
The experiment can be described thus: protein-binding microarray (RPBM); PBS, 2% BSA, 51.3 ng/ul salmon testes DNA, 50 uM zinc acetate, 200 nM TF, 25 C, 1 h; high values mean tight binding. The note with it: protein: recombinant; tags: N-terminal polyhistidine and DsRed monomer fusion (pET32a); label: CyDye5-dUTP incorporated in the synthesized complementary strand; 3' TTTTT single-stranded linker to array surface; dsDNA, one strand shown. The essentials:
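Binding signal here means per-feature fluorescence intensity in arbitrary units. The values were read on an Axon 4000B scanner after a custom Agilent array, double-stranded by primer extension with Cy5-dUTP, was incubated with 200 nM protein at 25 °C for 1 h in PBS with 2% BSA, salmon testes DNA and 50 µM zinc acetate, then washed. The proteins were transcription factors with an N-terminal polyhistidine tag and DsRed, expressed in E. coli BL21-CodonPlus and purified on Ni–NTA.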
In the case of “TGGCATAATGGTAATTAATAATGATAGTGATAGTAGTACGCGGAGTCACCTAGTGCAG”, the binding signal is 12900 fluorescence intensity (a.u.).

Consider “GAATAATTAGGTGCACCTGCGTCTTGCTGGGGATCTAAAGCGGAGTCACCTAGTGCAG”, for which the binding signal is 5730 fluorescence intensity (a.u.).

Take “AATTCATTCAAAATCAATCAAAATTTCAAATAATTTCGTTCGGAGTCACCTAGTGCAG”: the binding signal was 15200 fluorescence intensity (a.u.).

Turning to “GCGTAATGATTAATGTTAGGACATGTCTCTAGACGGATGACGGAGTCACCTAGTGCAG”, the binding signal is 28200 fluorescence intensity (a.u.).

Consider “CCAAACTAGTACAATTTTCCATCAAGATAACGACGAACGCCGGAGTCACCTAGTGCAG”, for which the binding signal was 3690 fluorescence intensity (a.u.).

As for “TTTCTATTCAATTATCGCCTAACCATAGTTTATGTTTACTCGGAGTCACCTAGTGCAG”, the binding signal was 11400 fluorescence intensity (a.u.).

For the sequence “AATTTAAATAATTATTTATTCTTTTCATGTCATTTGATTCCGGAGTCACCTAGTGCAG”, the binding signal is 20100 fluorescence intensity (a.u.).

Consider “TCTAAATTTGCGCAACCTCTCATGCCACTCTCCGTCAGTTCGGAGTCACCTAGTGCAG”, for which the binding signal is 7780 fluorescence intensity (a.u.).

As to “CAAATCATGTAGCAATTAGGCTTAAAAGATCCGTCTCATACGGAGTCACCTAGTGCAG”, the binding signal is 7460 fluorescence intensity (a.u.).

For the sequence “TAACTGATTAGCGTCGGGAGCATAGCATTGGTCGAGTGAGCGGAGTCACCTAGTGCAG”, the binding signal was 28700 fluorescence intensity (a.u.).

Take “TTGTAAATTTATGTGTATAAGTAAAGTTTCGATGTGATGGCGGAGTCACCTAGTGCAG”: the binding signal is 8120 fluorescence intensity (a.u.).

With “GCGATTTAAACTAGATTAAAAGCCTATTTAGATTGGTGCCCGGAGTCACCTAGTGCAG”, the binding signal was 13100 fluorescence intensity (a.u.).

On to “CTATATTTGATTGCACAGATGATGAAAACCATACCTAAGCCGGAGTCACCTAGTGCAG”, for which the binding signal was 30800 fluorescence intensity (a.u.).

“TACTTCATTAATTTATTATGTTTCTTCATAGGAAAAGACACGGAGTCACCTAGTGCAG”: the binding signal was 6640 fluorescence intensity (a.u.).

For the sequence “TATTTAATTAATTATTTTCTCTCATCTCGTCTTCTCCGCACGGAGTCACCTAGTGCAG”, the binding signal was 51900 fluorescence intensity (a.u.).

On to “TATAATTATAATGTAATTACGTCGTAACGTGCATATAACTCGGAGTCACCTAGTGCAG”, for which the binding signal is 46800 fluorescence intensity (a.u.).

With “CCTGACTGCCATAACTCAGTCCATTGTCTTAAGTCGCAAACGGAGTCACCTAGTGCAG”, the binding signal was 15900 fluorescence intensity (a.u.).

Turning to “CATGAGTAAATCAATCAGGGATGGCAACATTCAGGTTTAGCGGAGTCACCTAGTGCAG”, the binding signal was 12200 fluorescence intensity (a.u.).

With “GCGCAAATTAAATGCAGGTAAAATGCACAAGTGTTGTAATCGGAGTCACCTAGTGCAG”, the binding signal is 11100 fluorescence intensity (a.u.).

In the case of “CAAACGATTGGATCAGGATTAGTCCGGCCCGATAGATGGGCGGAGTCACCTAGTGCAG”, the binding signal was 5360 fluorescence intensity (a.u.).

For the sequence “TACTAAATATGGGGTTGATGGGAACTCACCGTGCATACAACGGAGTCACCTAGTGCAG”, the binding signal was 4390 fluorescence intensity (a.u.).

As to “TGGCATGATTAACAATTGACCATAAACCCTCTAGTCTATCCGGAGTCACCTAGTGCAG”, the binding signal was 25800 fluorescence intensity (a.u.).

On to “ATTGATTGTTTAGTATCAAATAAGTTATCATGTGGATGTTCGGAGTCACCTAGTGCAG”, for which the binding signal is 47400 fluorescence intensity (a.u.).
